Results as given in the supplement of paper PMC10369915.
The other results are listed elsewhere or left out. No stated cut-off is given here; in the data, active = 3.2 or more and inactive = the rest. Most of these values are background signal.

Molecular target: SHP2 C-SH2 domain E139D
Assay: enrichment score (SH2-bound / input frequency) (ratio); bacterial display of known human phosphotyrosine sites (pTyr-Var adds point mutants) read by sequencing; higher = stronger binding; tyrosines were phosphorylated by kinases first
Conditions: peptide library: pTyr-Var
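Further: displayed peptides selected on beads carrying the immobilized SH2 domain, with library peptides lacking any tyrosine serving as negative controls.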

Enrichment score, inactive:
EAESWYQTKYE [KRT75_Y342] 0.822
RHNEIYEIKVD [LGR5_Y387] 0.853
TQTPPYVKKHP [LARP1B_Y457] 0.93
TQTPPYVKKHR [LARP1B_Y457_P462R] 1.05
RSGIYYKPESL [L2HGDH_Y103_H98R] 1
HGVSSYDTIIS [LDLR_Y465_V468I] 0.618
EQLQSYQAEII [KRT33A_Y268] 0.906
QDGYSYPSRQM [LDLR_Y847] 0.584
KIKGWYEKCEP [KRT26_Y119] 0.952
ATGGFYSFGGG [KRT24_Y120_YF] 1.4
SRGLAYPARPA [LEMD2_Y122] 0.793
RLEPVYFVAPA [LAMC2_Y250_D247E] 0.942
CENCHYPIVPL [LCK_Y25] 0.892
PQDVTYARLHS [LILRB4_Y412_Q414R] 0.881
SAPPSHEETVA [LITAF_Y23_Y23H] 0.367
SARFRYLMAEK [LDHB_Y173] 0.968
EKKQTYGSCRK [LACTB_Y473_R469K] 1.24
LKFAIYFEARE [LAMA2_Y1258_YF] 1.49

Molecular target: SHP2 C-SH2 domain wild-type
Assay: as above
Conditions: peptide library: pTyr-Var

Enrichment score, inactive:
EAESWYQTKYE [KRT75_Y342] 0.778
RHNEIYEIKVD [LGR5_Y387] 0.861
TQTPPYVKKHP [LARP1B_Y457] 0.809
TQTPPYVKKHR [LARP1B_Y457_P462R] 0.903
RSGIYYKPESL [L2HGDH_Y103_H98R] 0.766
HGVSSYDTIIS [LDLR_Y465_V468I] 0.652
EQLQSYQAEII [KRT33A_Y268] 0.786
QDGYSYPSRQM [LDLR_Y847] 0.629
KIKGWYEKCEP [KRT26_Y119] 1.02
ATGGFYSFGGG [KRT24_Y120_YF] 1.16
SRGLAYPARPA [LEMD2_Y122] 0.649
RLEPVYFVAPA [LAMC2_Y250_D247E] 1.04
CENCHYPIVPL [LCK_Y25] 0.818
PQDVTYARLHS [LILRB4_Y412_Q414R] 2.62
SAPPSHEETVA [LITAF_Y23_Y23H] 0.581
SARFRYLMAEK [LDHB_Y173] 0.455
EKKQTYGSCRK [LACTB_Y473_R469K] 1.29
LKFAIYFEARE [LAMA2_Y1258_YF] 2.37

Molecular target: SHP2 N-SH2 domain L43F
Assay: as above
Conditions: peptide library: pTyr-Var

Enrichment score, inactive:
EAESWYQTKYE [KRT75_Y342] 0.843
RHNEIYEIKVD [LGR5_Y387] 0.951
TQTPPYVKKHP [LARP1B_Y457] 0.744
TQTPPYVKKHR [LARP1B_Y457_P462R] 1.11
RSGIYYKPESL [L2HGDH_Y103_H98R] 0.872
HGVSSYDTIIS [LDLR_Y465_V468I] 0.678
EQLQSYQAEII [KRT33A_Y268] 0.719
QDGYSYPSRQM [LDLR_Y847] 0.569
KIKGWYEKCEP [KRT26_Y119] 0.846
ATGGFYSFGGG [KRT24_Y120_YF] 1.15
SRGLAYPARPA [LEMD2_Y122] 0.576
RLEPVYFVAPA [LAMC2_Y250_D247E] 0.997
CENCHYPIVPL [LCK_Y25] 0.83
PQDVTYARLHS [LILRB4_Y412_Q414R] 1.21
SAPPSHEETVA [LITAF_Y23_Y23H] 0.394
SARFRYLMAEK [LDHB_Y173] 0.645
EKKQTYGSCRK [LACTB_Y473_R469K] 1.09
LKFAIYFEARE [LAMA2_Y1258_YF] 2.8

Molecular target: SHP2 N-SH2 domain T42A
Assay: as above
Conditions: peptide library: pTyr-Var

Enrichment score, inactive:
EAESWYQTKYE [KRT75_Y342] 0.75
RHNEIYEIKVD [LGR5_Y387] 0.892
TQTPPYVKKHP [LARP1B_Y457] 0.861
TQTPPYVKKHR [LARP1B_Y457_P462R] 0.947
RSGIYYKPESL [L2HGDH_Y103_H98R] 0.728
HGVSSYDTIIS [LDLR_Y465_V468I] 0.611
EQLQSYQAEII [KRT33A_Y268] 0.834
QDGYSYPSRQM [LDLR_Y847] 0.664
KIKGWYEKCEP [KRT26_Y119] 0.848
ATGGFYSFGGG [KRT24_Y120_YF] 1.17
SRGLAYPARPA [LEMD2_Y122] 0.554
RLEPVYFVAPA [LAMC2_Y250_D247E] 1.02
CENCHYPIVPL [LCK_Y25] 0.685
SAPPSHEETVA [LITAF_Y23_Y23H] 0.459
SARFRYLMAEK [LDHB_Y173] 0.621
EKKQTYGSCRK [LACTB_Y473_R469K] 1.33

Enrichment score, active:
PQDVTYARLHS [LILRB4_Y412_Q414R] 4.36
LKFAIYFEARE [LAMA2_Y1258_YF] 4.06

Molecular target: SHP2 N-SH2 domain T52S
Assay: as above
Conditions: peptide library: pTyr-Var

Enrichment score, inactive:
EAESWYQTKYE [KRT75_Y342] 0.825
RHNEIYEIKVD [LGR5_Y387] 0.953
TQTPPYVKKHP [LARP1B_Y457] 0.721
TQTPPYVKKHR [LARP1B_Y457_P462R] 1.09
RSGIYYKPESL [L2HGDH_Y103_H98R] 0.859
HGVSSYDTIIS [LDLR_Y465_V468I] 0.569
EQLQSYQAEII [KRT33A_Y268] 0.851
QDGYSYPSRQM [LDLR_Y847] 0.592
KIKGWYEKCEP [KRT26_Y119] 0.709
ATGGFYSFGGG [KRT24_Y120_YF] 1.22
SRGLAYPARPA [LEMD2_Y122] 0.7
RLEPVYFVAPA [LAMC2_Y250_D247E] 1.12
CENCHYPIVPL [LCK_Y25] 0.807
PQDVTYARLHS [LILRB4_Y412_Q414R] 0.878
SAPPSHEETVA [LITAF_Y23_Y23H] 0.461
SARFRYLMAEK [LDHB_Y173] 0.451
EKKQTYGSCRK [LACTB_Y473_R469K] 1.35

Enrichment score, active:
LKFAIYFEARE [LAMA2_Y1258_YF] 3.72

Molecular target: SHP2 N-SH2 domain wild-type
Assay: as above
Conditions: peptide library: pTyr-Var

Enrichment score, inactive:
EAESWYQTKYE [KRT75_Y342] 0.842
RHNEIYEIKVD [LGR5_Y387] 0.741
TQTPPYVKKHP [LARP1B_Y457] 0.816
TQTPPYVKKHR [LARP1B_Y457_P462R] 1.04
RSGIYYKPESL [L2HGDH_Y103_H98R] 0.746
HGVSSYDTIIS [LDLR_Y465_V468I] 0.548
EQLQSYQAEII [KRT33A_Y268] 0.732
QDGYSYPSRQM [LDLR_Y847] 0.568
KIKGWYEKCEP [KRT26_Y119] 1.02
ATGGFYSFGGG [KRT24_Y120_YF] 1.18
SRGLAYPARPA [LEMD2_Y122] 0.693
RLEPVYFVAPA [LAMC2_Y250_D247E] 1.03
CENCHYPIVPL [LCK_Y25] 0.901
PQDVTYARLHS [LILRB4_Y412_Q414R] 0.921
SAPPSHEETVA [LITAF_Y23_Y23H] 0.653
SARFRYLMAEK [LDHB_Y173] 0.767
EKKQTYGSCRK [LACTB_Y473_R469K] 1.21

Enrichment score, active:
LKFAIYFEARE [LAMA2_Y1258_YF] 5.02
